Test results as given in PubChem BioAssay AID1963576 (National Center for Advancing Translational Sciences (NCATS), 2024).
The campaign covered roughly 46,000 compounds. About 60 (0.1%) were called active. Inconclusive results (about 3%) are left out. Calls follow the shape of the dose curve; as a rule, active = well fitted inhibition curve with a large enough effect; inconclusive = small, poorly fitted or top-dose-only effect; inactive = no such curve, though single readings can be large or run the other way. The list shows a part of the results.

Experiment: Primary qHTS assay for Inhibitors of ovarian cancer metastasis using an organotypic tumor microenvironment (TME) model. Also: nearly all actives have a fitted effect of over 65% in size.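 As to activity change, negative = inhibition: plate controls were DMSO wells for no effect and tomatine positive control wells for full effect.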
Conditions: SKOV3ip1-GFP adhesion/invasion on 3D omental model, fluorescence; series mostly up to 45.8 µM; activity change, negative = inhibition: at the top concentration
Procedure, shortened: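 qHTS, 4-pt dose (0.36-46 umol/L); SKOV3ip1-GFP, 1,200 cells/well, no FBS; primary omental fibroblast/mesothelial co-culture 48 h pre-grown; 2 h RT + 16 h 37 C; PBS wash, 4% PFA; GFP count 488/509 nm.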

Activity change, negative = inhibition, inactive:
Cc1ccc(-n2nc(C)c3c(C)c(CCC(=O)NC(C)c4ccccc4)c(C)nc32)cc1 (configuration not stated) 1.45%
COc1ccccc1CCNC(=O)c1cccn1-c1nnc(N2CCCC2)s1 5.31%
CCOc1ccc(-c2cc(NC(=O)c3ccccc3)c(C(=O)OC)s2)cc1 2.1%
CCOc1ccc(C2C(C(=O)Nc3ccccc3)=C(C)Nc3nc(-c4ccccc4Cl)nn32)cc1OC (configuration not stated) 5.03%
COc1ccc(CNC(=O)Cn2c(=O)oc3cc(S(=O)(=O)NCc4ccccc4)ccc32)cc1 -0.919%
Cc1ccccc1NC(=O)C(=O)NCC(c1ccc2c(c1)OCO2)N1CCN(c2ccccc2)CC1 (configuration not stated) 12.7%
Cc1ccc(Cl)cc1N1CCN(c2ncnc3c2nc2n3CCCC2)CC1 -3.78%
CCCN(C(=O)c1cc(S(=O)(=O)N2CCc3ccccc32)cn1C)c1ccc(OCC)cc1 -7.34%
CCCn1c2ccccc2c2cnn(CC(=O)NCCCN3CCCCC3CC)c(=O)c21 (configuration not stated) -10.5%
O=C(Cn1nc(C(F)(F)F)c2c1CCCC2)Nc1cccc(Cl)c1 -9.8%
CCC(C)NC(=O)c1cc(Sc2cccc(Cl)c2)nc2ccccc12 (configuration not stated) 3.4%
FC(F)(F)c1cccc(N2CCN(c3ncnc4c3nc3n4CCCC3)CC2)c1 2.64%
NC1=N[C@H]2[C@H](CS[C@H]2CCCCC(=O)O)N1 9.47% [at 23.2 µM]
COc1ccc(NC(=O)c2cc3c(-c4ccccc4F)nn(C)c3s2)c(OC)c1 -3.71%
CCOc1ccc(Nc2cc(C)nc3nncn23)cc1 -2.85%
COc1cccc(C(=O)CC2(O)C(=O)N(Cc3ccccc3)c3ccccc32)c1 (configuration not stated) -19.5%
COc1cc(CNC(=O)c2ccc3nc(Cc4ccccc4)oc3c2)cc(OC)c1OC 2.26%
CC(CNC(=O)c1ccc(Cn2c(=O)c3cccn3c3cccnc32)cc1)c1ccccc1 (configuration not stated) -4.27%
COc1ccc(-c2c(C)c3cc(OC(=O)N4CCOCC4)ccc3oc2=O)cc1OC 3.58%
Cc1cn2c(=O)cc(COC(=O)c3ccc(NC(=O)c4ccccc4C)cc3)nc2s1 3.22%
Cc1ccccc1CS(=O)(=O)Cc1ccc(C(=O)NCCc2ccc(Cl)cc2)o1 0.977%
Cc1ccccc1C(=O)Nc1sc2c(c1C(=O)N1CCC(C)CC1)CCC(C)C2 (configuration not stated) 0.898%
COc1ccc(NC(=O)c2nnn(CC(=O)Nc3ccc(C)c(C)c3)c2N)cc1OC -13.9%
CCOc1cc2[nH]c(=O)n(CCCCC(=O)N3CCN(c4ccccc4OC)CC3)c(=O)c2cc1OCC 13.2%
CCc1cccc(NC(=O)Cn2c(=O)n3nc(-c4cccc(F)c4)nc3c3ccccc32)c1 2.11%
Cc1cn(C)c(CC(=O)Nc2cccc(C#N)c2)c1C(=O)O -9.59%
Cc1ccc(CSc2ncc(Cl)c(C(=O)Oc3ccccc3F)n2)cc1 16.6%
Cc1ccc(Cn2c(=O)n(-c3cccc(C(F)(F)F)c3)c(=O)c3c(C)c(C)sc32)c(C)c1 3.7%
Fc1cc(-c2cccc3ncc(-c4cnn(C5CCNCC5)c4)nc23)cc(F)c1CN1CCOCC1 -4.29%
Cc1ccc(Cn2c(=O)c3cccnc3n(Cc3ccc(C)cc3)c2=O)cc1 -0.432%
CCOC(=O)N1CCC(NC(=O)c2cnn(-c3ccc(OC)cc3)c2C2CCN(C(=O)OC(C)(C)C)CC2)CC1 21.8%
Cc1ccccc1NC(=O)COc1ccc2oc3c(c2c1)CCCC3 -2.27%
Cc1ccc(CCNC(=O)c2cnc3c(-c4ccc(F)cc4)c(C)nn3c2C)cc1 20.4%
Cc1ccc(-c2nn3c(=O)cc(CN4CCN(C(=O)Nc5cccc(C(F)(F)F)c5)CC4)nc3s2)cc1 5.26%
Cc1ccccc1OCCn1cc(C(=O)c2ccco2)c2ccccc21 3.49%
CCOc1ccc(C(=O)/C=C/c2cn(CC(O)CN3CCc4ccccc43)c3ccccc23)cc1 (configuration not stated) -11.1%
COc1cc(OC)c(OC)cc1CN1CCc2nc(N3CCN(C)CC3)ncc2C1 15.9%
Cc1cc(C)cc(N2C(=O)N(Cc3cc(=O)n4ccccc4n3)c3ccccc3S2(=O)=O)c1 8.26%
O=C(CCn1c(=O)c2ccccc2n(Cc2cccc(F)c2)c1=O)NCc1ccc2c(c1)OCO2 -18.4%
CCOc1ccc(CN2CCN(Cc3ccc4c(c3)c3ccccc3n4CC)CC2)cc1 -0.45%
COc1ccc(N2CCN(c3nc4ccc(C(=O)c5ccccc5)cc4n4cnnc34)CC2)cc1 1.99%
COC(=O)c1cccnc1-n1c(=O)c2cccnc2n(CC(=O)Nc2cccc(C)c2)c1=O -9.02%
COc1cc(C2c3c(oc4ccc(F)cc4c3=O)C(=O)N2Cc2ccc3c(c2)OCO3)ccc1O (configuration not stated) 14.1%
O=C1CC(c2c(F)cccc2Cl)c2c(ccc3ccccc23)N1 (configuration not stated) -9.09%
COc1ccc(C(=O)Nc2ccc3nc4c(c(Nc5ccccc5OC)c3c2)CCCC4)c(OC)c1 -13%
Cc1ccc(NC(=O)c2oc3ccc(S(=O)(=O)N4CCOCC4)cc3c2C)c(C)c1 -4.57%
COc1ccc(CNC(=O)Cc2coc3ccc(C)cc23)cc1 -2.48%
CCOC(=O)c1c(C)n(C)c2ccc(O)cc12 9.25%
O=C(C=Cc1cccc(S(=O)(=O)Nc2ccccc2)c1)NO -4.68% [at 92.2 µM]
COc1ccc(NC(=O)Cc2c(C(=O)O)[nH]c3ccccc23)cc1OC 0.255%
CCN(c1ccccc1C)S(=O)(=O)c1nnc(NC(=O)c2ccccc2C)s1 0.305%
COc1cc(NC(=O)N2CCSc3ccccc32)cc(OC)c1OC -0.175%
CC(C)Oc1ccc(CNC(=O)c2ccc3c(c2)nc2n3CCOC2)cc1 -1.75%
Cc1nn(C(=O)c2c(F)cccc2F)c(C)c1S(=O)(=O)N1CCCCCC1 1.53%
CCOc1ccc(OCC)c(NC(=O)C2CCCN(S(=O)(=O)c3cc(Br)cc4c3N(C(=O)CC)CC4)C2)c1 (configuration not stated) -7.77%
Cc1nc2nc(C)c(NS(=O)(=O)c3ccc(CC(C)C)cc3)c(=O)n2[nH]1 -5.87%
CCCc1nnc(NC(=O)Nc2ccccc2Cl)s1 2.46%
COc1ccc(NC(=O)Cn2cc(C(=O)c3ccccc3OC)c(=O)c3ccc(C)nc32)cc1OC -6.89%
Cn1c(=O)c2c(-c3ccccc3)n(CCCO)cc2n(C)c1=O -3.58%
CCn1c(CN2CCOCC2)nc2cc(NC(=O)c3cccc([N+](=O)[O-])c3)ccc21 -23.2%
COc1ccc(C)cc1NC(=O)c1nnn(-c2c(C)cccc2C)c1C -20.2%
N#Cc1ccc(Oc2ccc3c(c2)COB3O)cc1 -5.26%
CC(N)C12CC3CC(CC(C3)C1)C2 (configuration not stated) -8.3%
CCOc1ccc(C2C(C(=O)Nc3ccccc3C)=C(C)Nc3nnnn32)cc1 (configuration not stated) 1.91%
CCCCc1ccc2nc(NC(=O)OC)[nH]c2c1 5.37%
CC(C)N(C(=O)Cn1cc(SCC(=O)Nc2ccccc2C(F)(F)F)c2ccccc21)C(C)C -4.13%
COc1ccc(C)cc1NC(=O)c1oc2ccc(S(=O)(=O)N3CCC4(CC3)OCCO4)cc2c1C -6.34%
O=C(Cn1ccc2cc(S(=O)(=O)N3CCCCC3)ccc21)NCc1ccccc1Cl -4%
CCOCCn1cnc2sc(C(=O)Nc3ccccc3C(=O)OC)c(C)c2c1=O 3.29%
Cc1ccc(-c2nc(CCNC(=O)C(=O)Nc3c(C)cccc3C)cs2)cc1 -8.56%
CN(C)C1CCN(C(=O)c2ccc(NC(=O)Nc3nc(N4CCOCC4)nc(N4CCOCC4)n3)cc2)CC1 22.1%
COc1ccccc1/C=C/c1nc(C#N)c(NCC(C)C)o1 -10.3%
CC(C)Cn1c(=O)c2ccccc2n2c(CCC(=O)Nc3ccc(F)cc3)nnc12 -18.2%
CCCN(CCC)C(=O)c1nn(C)c2c1CSc1ccc(C)cc1-2 -2.82%
CCOc1ccc(NC(=O)Cn2nc(Cc3ccncc3)c3ccccc3c2=O)cc1 -0.288%
COc1ccc(C(=O)c2oc3ccccc3c2NC(=O)c2cccc(OC)c2)cc1 -8.65%

outcome, inactive:
Cc1cc(C)c(NC(=O)Cn2c(=O)oc3cc(S(=O)(=O)N4CCCCCC4)ccc32)c(C)c1
CCN1CCN(Cc2c(O)ccc3oc(C)c(C(=O)Nc4cccc(Cl)c4C)c23)CC1
Cc1ccccc1NC(=O)Cn1cc(S(=O)(=O)c2ccccc2)c(=O)c2ccccc21
NC(=O)Cn1c(=O)n(CCCCCC(=O)NCc2ccc3c(c2)OCO3)c(=O)c2sccc21
COc1ccc2c(c1)c1c(c(=O)n(-c3ccc(OC)c(OC)c3)c(=O)n1Cc1ccc(F)cc1)n2C
CCOC(=O)C1CCCN(c2c(C(=O)c3ccccc3)cnc3ccc(F)cc23)C1 (configuration not stated)
COc1cccc(Cn2nnc(C(=O)NCc3ccc(Cl)cc3Cl)c2N)c1
COc1ccc(-c2cc3nc(C)c(CCC(=O)NCCc4ccc(Cl)cc4)c(C)n3n2)c(OC)c1
O=C(CN1C(=O)COc2ccc(S(=O)(=O)N3CCCCCC3)cc21)N1CCN(c2ccc(F)cc2)CC1
COc1ccc(OC)c(C2CC(=O)c3c([nH]c(C(=O)OCc4ccc(C)cc4)c3C)C2)c1 (configuration not stated)
Clc1ccc(-c2noc3ncnc(NC4CCCCC4)c23)cc1
CCc1nn(CC(=O)NCc2ccc(C)cc2)c(=O)c2cc3occc3n12
O=C(CCS(=O)(=O)c1nc(-c2ccc3c(c2)OCO3)cc(C(F)(F)F)n1)Nc1ccc(Br)cc1
Cc1ccc(CN2CCC(CNC(=O)Nc3ccc(C)c(C)c3)C2)cc1 (configuration not stated)
CC(=O)Nc1nnc2n1CCS2
CCOC(=O)c1ccc(N2CCN(c3cc(C)ccc3C)CC2)c(NC(=O)Nc2ccc(Cl)cc2)c1
Cc1ccc(C)c(NC(=O)/C(C#N)=C/c2ccc(C(C)C)cc2)c1
COc1cc(NC(=O)CN2Cc3ccccc3C2=O)cc(OC)c1OC
Cn1c(=O)c2c(c3ccccc31)OC(=O)CC2c1cccc(Cl)c1 (configuration not stated)
COc1ccc(N2C(=O)CSC23C(=O)N(Cc2ccc(C)cc2)c2ccccc23)cc1Cl (configuration not stated)
CCOc1cccc(CC(=O)N2CCc3c([nH]c4ccccc34)C2c2ccc(SC)cc2)c1OCC (configuration not stated)
